In patent publication US9957330B2, “Polypeptides” (AFFIBODY AB, priority 2012, dated 2018):

Legend:
[1] = biological target: T1, CAIX-expressing SK-RC-52 cells (Homo sapiens, UniProt Q16790); assay: […] binding analysis on living cells; format: cell-based; conditions: living SK-RC-52 cells, 4° C.; for ka1 / kd1: first binding event; for ka2 / kd2: second binding event
T1 construct: The CAIX-expressing renal clear cell carcinoma cell line SK-RC-52; endogenous in cells; host or cells: SK-RC-52 renal clear cell carcinoma cells (provided by Active Biotech, Sweden)
Protocol: The CAIX-expressing renal clear cell carcinoma cell line SK-RC-52 was seeded on a local area of a cell culture dish (Nunclon™, Size 100620, NUNC NS, Roskilde, Denmark). The binding of ^99mTc-labeled Z variants to living cells was monitored in real-time at 4° C. using a […] Yellow (Ridgeview Instruments, Sweden) and established methods (Björkelund et al Appl Radiat Isot. 68:2372-6, 2010). […] The kinetic parameters were determined using the […] software.

SK-RC-52 cells = assay: Cellular processing (internalization) by SK-RC-52 cells; format: cell-based; conditions: 37° C.
Protocol: To evaluate the cellular processing, SK-RC-52 cells were incubated with the radiolabeled Z variants at 37° C. and 5% CO2. At designated time points (1, 2, 4, 8 and 24 h), a set of three dishes was removed from the incubator, the media was collected and cells were washed with ice cold serum-free medium. Cells were then treated with 0.5 ml of 0.2 M glycine buffer, pH 2, containing 4 M urea, for 5 min on ice. The acidic solution was collected and cells were washed with 0.5 ml glycine buffer. The acidic fractions were pooled. The cells were then incubated with 0.5 ml 1 M NaOH at 37° C. for at least 20 min. The cell debris was collected and the dishes were additionally washed with 0.5 ml of NaOH solution. The alkaline fractions were pooled. The radioactivity in the acidic solution was considered as membrane bound, and in the alkaline fractions as internalized.

[2] = CD analysis, variable temperature measurement (melting temperature); format: physicochemical; conditions: CD at 221 nm, 20 to 90° C., 0.5 mg/ml in PBS, dimer format
Protocol: The purified Z variants in dimer format were thawed and diluted to 0.5 mg/ml in PBS. For each diluted Z variant, a CD spectrum at 250-195 nm was obtained at 20° C. In addition, a variable temperature measurement (VTM) was performed to determine the melting temperature (Tm). In the VTM, the absorbance was measured at 221 nm while the temperature was raised from 20 to 90° C., with a temperature slope of 5° C./min. The CD measurements were performed on a Jasco J-810 spectropolarimeter (Jasco Scandinavia AB) using a cell with an optical path-length of 1 mm.

human CAIX = biological target: T2, human CAIX (Homo sapiens, UniProt Q16790); assay: Biacore binding analysis of dimeric Z variants; conditions: 1 μM; for binding to human CAIX (Biacore sensorgram): over immobilized human CAIX (590 RU)
T2 construct: purchased R&D Systems 2188-CA
Protocol: The interactions of five NEM treated His6-tagged dimeric CAIX-binding Z variants with human CAIX were analyzed in a Biacore 2000 instrument (GE Healthcare). Human CAIX was immobilized in a flow cell on the carboxylated dextran layer of a CM5 chip surface (GE Healthcare). The immobilization was performed using amine coupling chemistry according to the manufacturer's protocol. One flow cell surface on the chip was activated and deactivated for use as blank during analyte injections. The analytes, i.e. dimeric Z variants diluted in HBS-EP running buffer (GE Healthcare) to a final concentration of 1 μM, were injected at a flow-rate of 10 μl/min for 5 minutes. After 5 minutes of dissociation, the surfaces were regenerated with one injection of 10 mM HCl. The results were analyzed in BiaEvaluation software (GE Healthcare). Curves of the blank surface were subtracted from the curves of the ligand surface.

CAIX on LS174T cells = biological target: T3, CAIX on LS174T cells (Homo sapiens, UniProt Q16790); assay: Immunofluorescence staining of LS174T cells, flow cytometry and fluorescence microscopy; format: cell-based; conditions: for flow cytometry analysis, shift in mean fluorescence intensity (MFI): 10 μg/ml, His6-(Z#####)2-Cys-NEM form
T3 construct: Colorectal carcinoma cells LS174T, expressing CAIX on their surface; endogenous in cells; host or cells: LS174T colorectal carcinoma cells
Protocol: Colorectal carcinoma cells LS174T, expressing CAIX on their surface, were cultured in EMEM (Lonza) supplemented with 10% fetal calf serum (FCS), 1% glutamine, 1% non-essential amino acids, 1% sodium pyruvate and 1% Penicillin-Streptomycin (PEST). On the day of assay, LS174T cells were trypsinated, counted and 0.1-0.2×10^6 cells were added to 5 ml falcon tubes. The cells were pelleted by centrifugation at 1200 rpm and supernatant removed. The cells were stained with different purified Z variants in His6-(Z#####)2-Cys-NEM form. For screening, 100 μl of the different binders diluted to 10 μg/ml in PBS supplemented with 2% FCS (PBS 2% FCS) was added and cells were incubated for two hours at 4° C. PBS was used as background control and an unrelated Z variant (Z03638 (SEQ ID NO:356)) was used as negative control. The cells were washed once by filling up the tube with PBS and pelleting the cells by centrifugation. The pelleted cells were resuspended in 100 μl of goat anti-Z variant Ig (cat. no. 20.1000.01.0005; Affibody AB, Sweden), 5 μg/ml and incubated for one hour at 4° C. The goat anti-CAIX specific antibody MAB2188 (R&D systems) was used as a positive control at a concentration of 5 μg/ml. Cells were subsequently washed in PBS as described and resuspended in 100 μl of Alexa488-labeled anti-goat antibody (Invitrogen) at a concentration of 10 μg/ml. After 45 minutes of incubation at 4° C. cells were washed in PBS, resuspended in 300 μl of PBS and subjected to flow cytometry analysis using a FACSCantoll (BD Biosciences).
After the flow cytometry analysis, cells were added to glass slides and fixed in 2% formaldehyde in PBS for 15 minutes at RT. After washing carefully in PBS, the slides were dried and mounted with anti-fading solution (Vectashield, Vector laboratories). The staining was analyzed with a Leica DM-LA UV microscope (Leica Microsystems).

Row | Molecule | ka1 [1] [M⁻¹ s⁻¹] | kd1 [1] [s⁻¹] | ka2 [1] | kd2 [1] [s⁻¹] | Fraction internalized radioactivity after 24 h (SK-RC-52 cells) [%] | Tm [2] [°C] | binding to human CAIX (Biacore sensorgram) (human CAIX) | flow cytometry analysis, shift in mean fluorescence intensity (MFI) (CAIX on LS174T cells) | membrane staining by fluorescence microscopy (CAIX on LS174T cells) | dissociation curve to human CAIX (human CAIX; 5 min dissociation)
1 | ^99mTc-(HE)3-Z09784: (HE)3-Z09784 radiolabeled with [99mTc(CO)3]+ (conjugate) HEHEHEAEAKYAKEWWWAGIEIADLPNLTQQQRDAFIYKLWDDPSQSSELLSEAKKLNDSQAPKVD | 12000 | 0.00011 | 3.4 × 10^4 1/MS | 0.0025 | 43 | – | – | – | – | –
2 | ^99mTc-(HE)3-Z09782: (HE)3-Z09782 radiolabeled with [99mTc(CO)3]+ (conjugate) HEHEHEAEAKYAKENLFAGWEISDLPNLTDYQRNAFIYKLWDDPSQSSELLSEAKKLNDSQAPKVD | 3300 | 1.9e-05 | – | – | 25 | – | – | – | – | –
3 | ^99mTc-(HE)3-Z09783: (HE)3-Z09783 radiolabeled with [99mTc(CO)3]+ (conjugate) HEHEHEAEAKYAKENIFAGWEIDDLPNLTDEQRNAFIYKLWDDPSQSSELLSEAKKLNDSQAPKVD | 5900 | 2.7e-05 | 3.8 × 10^3 1/MS | 0.00023 | 25 | – | – | – | – | –
4 | His6-(Z04191)2-Cys-NEM: CAIX binding Z variant Z04191 (SEQ ID NO:351) from primary selection, tested in dimer format (protein) MGSSHHHHHHLQVDAKYAKEDVNAWQEIIKLPNLTIFQRDAFIYKLWDDPSQSSELLAEAKKLNDAQAPKVDAKYAKEDVNAWQEIIKLPNLTIFQRDAFIYKLWDDPSQSSELLAEAKKLNDAQAPKVDC | – | – | – | – | – | 60 | showed binding to CAIX | positive | – | –
5 | His6-(Z04208)2-Cys-NEM: CAIX binding Z variant Z04208 (SEQ ID NO:353) from primary selection, tested in dimer format (protein) MGSSHHHHHHLQVDAKYAKEHEWAGVEIQSLPNLTTQQKHAFIYKLWDDPSQSSELLAEAKKLNDAQAPKVDAKYAKEHEWAGVEIQSLPNLTTQQKHAFIYKLWDDPSQSSELLAEAKKLNDAQAPKVDC | – | – | – | – | – | 62 | showed binding to CAIX | positive | membrane staining | –
6 | His6-(Z04421)2-Cys-NEM: CAIX binding Z variant Z04421 (SEQ ID NO:354) from primary selection, tested in dimer format (protein) MGSSHHHHHHLQVDAKYAKEDRYAWTEIHKLPNLTVRQQNAFIYKLWDDPSQSSELLAEAKKLNDAQAPKVDAKYAKEDRYAWTEIHKLPNLTVRQQNAFIYKLWDDPSQSSELLAEAKKLNDAQAPKVDC | – | – | – | – | – | 51 | showed binding to CAIX | positive | membrane staining | –
7 | His6-(Z04187)2-Cys-NEM: CAIX binding Z variant Z04187 (SEQ ID NO:350) from primary selection, tested in dimer format (protein) MGSSHHHHHHLQVDAKYAKENLWAGWEIDDLPNLTHSQRNAFIYKLWDDPSQSSELLAEAKKLNDAQAPKVDAKYAKENLWAGWEIDDLPNLTHSQRNAFIYKLWDDPSQSSELLAEAKKLNDAQAPKVDC | – | – | – | – | – | 51 | showed binding to CAIX | positive | membrane staining | –
8 | His6-(Z04196)2-Cys-NEM: CAIX binding Z variant Z04196 (SEQ ID NO:352) from primary selection, tested in dimer format (protein) MGSSHHHHHHLQVDAKYAKEWKFASIEIADLPNLTQHQKDAFIFKLWDDPSQSSELLAEAKKLNDAQAPKVDAKYAKEWKFASIEIADLPNLTQHQKDAFIFKLWDDPSQSSELLAEAKKLNDAQAPKVDC | – | – | – | – | – | 61 | showed binding to CAIX | positive | – | slowest dissociation curve
